Earlier results as cited in patent EP0410147B1 (priority 1989, dated 1991).

Target: Protease 3C von HRV14 (Human rhinovirus 14, UniProt P03303)
Details: cited from earlier work

Protease 3C von HRV14, sequence (P03303 1538-1719): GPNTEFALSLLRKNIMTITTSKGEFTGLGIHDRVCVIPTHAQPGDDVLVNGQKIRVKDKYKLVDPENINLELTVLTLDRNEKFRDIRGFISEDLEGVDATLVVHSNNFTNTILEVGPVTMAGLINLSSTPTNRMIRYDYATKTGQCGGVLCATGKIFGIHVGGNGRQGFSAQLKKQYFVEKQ

[Cl-].[Cl-].[Zn+2] [ZnCl₂]
Inhibierung des Processing von 3C-Precursorformen: inhibiert
